According to patent US20200405890A1 (CYTOMX THERAPEUTICS, published 2020):
One block for each binder: values may come before it.

Experiments:
[1] = target: T1, human extracellular PD-L1 domain (R&D Systems; 156-B7-100) (human, UniProt Q9NZQ7 in part); test: indirect ELISA, plate coated with human PD-L1 extracellular domain, anti-human IgG-HRP detection
T1 construct: extracellular domain; Bought reagent coated on the ELISA plate at 1 ug/mL
Protocol: Immunoreactivity to PD-L1 of CX-072 and CX-075 after conjugation to TFP-N-sucDf was assessed by an indirect enzyme-linked immunosorbent assay (ELISA). 96-well plates (Nunc Maxisorp) were coated with 1 μg/mL human extracellular PD-L1 domain (R&D Systems; 156-B7-100) diluted in PBS (Givco; 0.7 mM sodium phosphate, 1.5 mM potassium phosphate, 154 mM sodium chloride, pH 7.2) and incubated overnight at 4° C. Wells were blocked for 2 hours at room temperature (RT) with 1% bovine serum albumin (Sigma-Adrich), 0.05% Tween 20 in PBS. After blocking, plates were incubated with either unconjugated CX-072, PbCtrl or CX-075 or their respective N-sucDf-conjugates in a concentration ranging from 0.00914 to 600 nM for 60 minutes at RT. Plates were subsequently washed with 0.05% Tween 20 in PBS and incubated with horseradish peroxidase-labeled anti-human IgG antibody (Sigma-Aldrich; A0293) for 60 minutes at RT. Detection was performed with single-component TMB peroxidase substrate (BioRad) and optical density read-out was performed at 450 nm using a micro plate-reader. Immunoreactivity to PD-L1 was expressed as the effective concentration needed for 50% of receptor occupation (EC50).

[2] = target: T2, PD-L1 in mouse spleen tissue (mouse, UniProt Q9EP73); test: PET quantification of spleen uptake in Balb/c nude mice, day 6 p.i.
T2 construct: whole, on cells; Endogenous mouse target in vivo; the species follows from the host animal; also called PD-L1 expressing spleen tissue
T2 sequence (Q9EP73 19-290): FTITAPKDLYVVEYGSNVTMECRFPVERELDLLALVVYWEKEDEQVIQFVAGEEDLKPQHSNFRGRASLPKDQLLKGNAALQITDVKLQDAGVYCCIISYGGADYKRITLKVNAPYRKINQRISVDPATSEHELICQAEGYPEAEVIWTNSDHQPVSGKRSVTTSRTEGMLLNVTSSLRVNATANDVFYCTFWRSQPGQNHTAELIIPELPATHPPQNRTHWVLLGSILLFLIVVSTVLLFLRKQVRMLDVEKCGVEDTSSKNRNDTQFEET
Protocol: Animals used for imaging and biodistribution studies were injected intravenously into the penile vein with 150 μl tracer solution, containing 10 μg ⁸⁹Zr-CX-072. 10 μg 89Zr-labeled non-binding isotype activatable antibody control (⁸⁹Zr-PBCtrl), or 10 g ⁸⁹Zr-CX-075 (5 MB1±0.5 MBq, 10 μg supplemented with 0, 40, 240 μg non-radiolabeled CX-072 or non-radiolabeled PBCtrl) resulting in total protein doses of 10, 50, 250 μg). Mice were subsequently scanned after 24, 72, and 144 h (i.e., 1 day, 3 days, and 6 days, respectively) post-injection (p.i.) using a Focus 220 microPET (CTI Molecular Imaging, Inc.) and subsequently sacrificed after the final scan. Organs of interest were excised, cleaned from blood and weighed. Samples and primed standards were counted in a calibrated well-type gamma-counter for radioactivity, and results expressed as percentage of injected dose per gram tissue (% ID/g).

Chain of UniProt Q9NZQ7 (Q9NZQ7 19-238): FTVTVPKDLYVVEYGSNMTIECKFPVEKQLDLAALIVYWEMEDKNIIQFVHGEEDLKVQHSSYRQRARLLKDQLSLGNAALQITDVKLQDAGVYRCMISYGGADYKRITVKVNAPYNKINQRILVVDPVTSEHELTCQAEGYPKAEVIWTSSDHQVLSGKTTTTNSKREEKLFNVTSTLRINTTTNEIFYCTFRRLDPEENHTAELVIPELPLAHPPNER

- binding result [1]: binds
B1: CX-072-N-sucDf (activatable anti-PD-L1 antibody CX-072 conjugated with N-succinyldesferal) (antibody)
heavy: EVQLLESGGGLVQPGGSLRLSCAASGFTFSSYAMSWVRQAPGKGLEWVSSIWRNGIVTVYADSVKGRFTISRDNSKNTLYLQMNSLRAEDTAVYYCAKWSAAFDYWGQGTLVTVSSASTKGPSVFPLAPCSRSTSESTAALGCLVKDYFPEPVTVSWNSGALTSGVHTFPAVLQSSGLYSLSSVVTVPSSSLGTKTYTCNVDHKPSNTKVDKRV[letters of human IgG4 Fc with S228P (EU numbers) left out]
light: QGQSGSGIALCPSHFCQLPQTGGGSSGGSGGSGGISSGLLSGRSDNHGGSDIQMTQSPSSLSASVGDRVTITCRASQSISSYLNWYQQKPGKAPKLLIYAASSLQSGVPSRFSGSGSGTDFTLTISSLQPEDFATYYCQQDNGYPSTFGGGTKVEIKRTVAAPSVFIFPPSDEQLKSGTASVVCLLNNFYPREAKVQWKVDNALQSGNSQESVTEQDSKDSTYSLSSTLTLSKADYEKHKVYACEVTHQGLSSPVTKSFNRGEC
notes: It carries the chelator N-succinyldesferrioxamine (N-sucDf); also called Df-Suc-N-CX-072; N-sucDf conjugate of CX-072

- binding result [1]: binds
B2: CX-075-N-sucDf (parental anti-PD-L1 antibody CX-075 conjugated with N-succinyldesferal) (antibody)
heavy: B1 heavy
light: DIQMTQSPSSLSASVGDRVTITCRASQSISSYLNWYQQKPGKAPKLLIYAASSLQSGVPSRFSGSGSGTDFTLTISSLQPEDFATYYCQQDNGYPSTFGGGTKVEIKRTVAAPSVFIFPPSDEQLKSGTASVVCLLNNFYPREAKVQWKVDNALQSGNSQESVTEQDSKDSTYSLSSTLTLSKADYEKHKVYACEVTHQGLSSPVTKSFNRGEC
notes: It carries the N-sucDf chelator; also called Df-Suc-N-CX-075; PDL1-Ab

- binding result [2]: binds
B3: 89Zr-CX-075 (radiolabeled parental anti-PD-L1 antibody) (antibody)
heavy: B1 heavy
light: B2 light
notes: 89Zr is chelated by N-sucDf conjugated to CX-075; also called 89Zr-PDL1-Ab
